Laboratory results from ChEMBL document CHEMBL4513135, “CO-ADD screening of IQOG CSIS (Spain) compounds”.
“And” between values parts separate entries of the source, which are not always exact repeats. Equal values may be shown once. The list shows a part of the results. Entries with a potency or affinity are not part of this list.

Test system: Acinetobacter baumannii
Settings: Concentration 32 ug.mL-1, ASSAY_TEST Inhibition of Bacterial Growth, detection method Absorption (OD600), MEDIA CAMHB, plate type 384well, NBS, CORNING #3640, time 18 hr

Structure (SMILES)	Inhibition [%]	Inhibition (32 ug/mL)
c1ccc(Cn2ccc3ccccc32)cc1	3.41	–
COc1ccc2c(c1)cc(CNc1ccccc1)n2C	15.42	–
COc1ccc2c(ccn2C)c1	-2.86	–
CCOC(=O)c1c(C)[nH]c2ccc(OC)cc12	-4.77	–
CCOC(=O)/C(C#N)=C\c1ccc(C)cc1	5.75	–
N#Cc1c(-c2ccccc2)c2ccc3ccccc3c2oc1=O	0.26	–
C=C1CNc2c(C#N)c(-c3ccccc3)c(C#N)c(=N)n21	4.7	–
N#Cc1c(N)nc(NCCCC2CCN(Cc3ccccc3)CC2)c(C#N)c1-c1ccccc1	1.64	–
Cc1ccc2nc(Cl)c(/C=N/N)cc2c1	12.29	–
N#Cc1cc(C#N)c(NC2CCN(Cc3ccccc3)CC2)nc1N	–	7.41% and 4.81%
Cn1ccnc1C1C(C#N)=C(N)Oc2c1ccc1cccnc21 (centres undefined)	2.45	–
C#CCNc1nc(N)c(C#N)cc1C#N	4.34	–
N#Cc1cc(C#N)c(Cl)nc1N	3.66	–
O=c1oc2cc(O)ccc2cc1-c1ccccc1	-2.52	–
Cl.Nc1c2c(nc3c1C(c1c(Cl)cccc1Cl)c1ccc4ccccc4c1O3)CCCC2 (centres undefined)	-11.82	–
CCOC(=O)N/N=C/c1ccccc1	1.66	–
O=C1NC(=O)C(=Cc2ccccc2)N1	0.06	–
Cl.NC1(C(=O)O)CC1c1cccc(Cl)c1 (centres undefined)	-7.94	–
N#C/C(=C\c1ccccc1Cl)C(=O)c1ccccc1	-0.17	–
CCCC(=O)NCc1c(-c2ccc(Cl)cc2)nc2ccccn12	12.94	–
CNN=C1N=C(SCc2ccccc2)SC1=O	-0.03	–
Cc1nc2c3c(C)nn(-c4ccccc4)c3ncn2n1	0.13	–
Cn1ccnc1C1c2ccc3ccccc3c2Oc2nc3c(c(N)c21)CCCCC3 (centres undefined)	4.06	–

Structure (SMILES)	Inhibition [%]	Inhibition (32 ug/mL)
Cc1nc(NO)c2c(C)nn(-c3ccccc3)c2n1	-4.82	–
CC1=C(C(=O)N2[C@@H]3C[C@H]4CCC3(CS2(=O)=O)C4(C)C)C(c2ccccc2)C(C#N)=C(N)O1 (some centres undefined)	2.11	–
C#CCN(C)Cc1cc2cc(O)ccc2n1C.Cl	11.48	–
COc1nc2nc3c(c(N)c2cc1C#N)CCCC3.Cl	7.68	–
COc1cc(C2c3ccc4ccccc4c3Oc3nc4c(c(N)c32)CCCC4)ccc1O.Cl (centres undefined)	-15.17	–
C#CCN(C)c1nc(Sc2ccccc2)c(C#N)c(-c2ccccc2)c1C#N	-22.96	–
Cc1n[nH]c2c1C(c1ccc([N+](=O)[O-])cc1)C(C#N)=C(N)O2 (centres undefined)	-4.49	–
COC1=C(C#N)CC(C)C(=O)N1 (centres undefined)	2.17	–
Cc1cnc(NC(=O)OC(C)(C)C)c(Br)c1	7.81	–
O=C(N/N=C/c1c[nH]c2ccccc12)C(c1ccccc1)c1ccccc1	-15.34	–
C=C=CCN(C)Cc1cc2ccccc2n1C.O=C(O)C(=O)O	15.5	–
CCOC(=O)c1cn(C)c2ccccc12	10.06	–
C/C(=N\NC(=O)c1cc2ccccc2n1Cc1ccccc1)C1CC1	-1.88	–
N#Cc1c(N)nc(NCCC2CCN(Cc3ccccc3)CC2)c(C#N)c1-c1ccccc1	13.37	–
O=C(Cc1c[nH]c2ccccc12)NNCCc1ccccc1	7.47	–
COc1ccc2c(c1)cc(CN(C)Cc1cn(Cc3ccccc3)nn1)n2C	10.78	–
O=C(O)n1ccc2ccccc21	6.39	–
COc1nc(N)c(C#N)cc1C#N	6.65	–
Nc1c2c(nc3c1C(c1ccc(Cl)c(Cl)c1)c1ccc4ccccc4c1O3)CCCC2 (centres undefined)	-17.9	–
Cn1c(C(=O)NCc2ccccc2)cc2cc(OCCCC3CCN(Cc4ccccc4)CC3)ccc21	15.39	–
CCOC(=O)C1=C(C)OC(N)=C(C#N)C1c1cccnc1 (centres undefined)	6.55	–
N#CC1=C(N)Oc2c(ccc3ccccc23)C1c1cccc([N+](=O)[O-])c1 (centres undefined)	6.66	–
Cc1ccc(C(O)SNNc2ncnc3c2cnn3-c2ccccc2)cc1 (centres undefined)	0.88	–

Structure (SMILES)	Inhibition [%]	Inhibition (32 ug/mL)
CCOC(=O)C1=C(C)Oc2nc3c(c(N)c2C1c1nccn1C)CCCCC3 (centres undefined)	15.42	–
CC1Cc2c(Br)nc3nc4c(c(N)c3c2NC1=O)CCCC4 (centres undefined)	9.39	–
O=C(NN=Cc1c[nH]c2ccccc12)c1cccc2ccccc12	0.02	–
N#Cc1c(N)nc2c(c1-c1ccccc1)CN(Cc1ccccc1)CC2	-3.37	–
COc1cc(C2c3c(nc4c(c3N)CCC4)Oc3ccc4ccccc4c32)ccc1O (centres undefined)	-5.26	–
CCOC(=O)c1c(C)nc2nc3c(c(N)c2c1-c1ccc(OC)cc1)CCCCCC3	5.95	–
C#CCNc1nc(OC)c(C#N)c(-c2ccccc2)c1C#N	7.68	–
C#CCNC(=O)c1cc2cc(OCCCC3CCN(Cc4ccccc4)CC3)ccc2[nH]1	4.12	–
CCOC(=O)/C(C#N)=C\c1ccc([N+](=O)[O-])cc1	7.12	–
C=CCNc1[nH]c2ccc(O)cc2c1C#N	12.81	–
CCCC(C)NNC(=O)c1cc2ccccc2[nH]1 (centres undefined)	-1.27	–
CC(C)(C)OC(=O)Nc1ncccc1Br	13.31	–
COc1ccc(C2C(C#N)=C(N)Oc3ccc4ccccc4c32)cc1 (centres undefined)	8.27	–
N#Cc1cc(C#N)c(Cl)nc1Cl	8.74	–
COc1ccc(-c2c(C#N)c(=O)oc3c2ccc2ccccc23)cc1	–	0.82% and -5.46%
NNC(=O)C1(NC(=O)c2ccccc2)CC1c1cccc(O)c1 (centres undefined)	-6.03	–
CC(=O)Nc1nn(C)c2nc3nc4c(c(N)c3cc12)CCCC4	–	4.35% and 12.93%
O=C(Cc1c[nH]c2ccccc12)NN=C1CCCCCC1	3.75	–
N#CC1=C(N)Oc2ccc3ccccc3c2C1c1ccccc1[N+](=O)[O-] (centres undefined)	8.21	–
CSC1=NC2(CC2c2ccccc2)C(=O)N1C (centres undefined)	-4.07	–
CCOC(=O)c1cc2ccccc2[nH]1	4.42	–
N#Cc1cc(C#N)c(N2CCC(O)CC2)nc1N	9.39	–
CCOC(=O)c1c(C)nc(NC2CCN(Cc3ccccc3)CC2)c(C#N)c1-c1ccccc1	11.83	–
